The campaign covered roughly 150,000 compounds. About 540 (0.36%) showed an effect of 50% or more. This is one part of the list.
The compounds below were run on Plasmodium falciparum (assay: Primary screen in NF54 nanoGlo assay, in single point, at 2uM, 72h; a lower Z score goes with more inhibition). Details: timepoint 72 hour.
Assay type: functional, Erythrocyte
In the case of `COc1cc2c(cc1-c1nc3c(cnn3[C@@H](C)c3ccccc3)[nH]1)OCO2`, the “% Inhibition” value is reported as -4% and the Z score is reported as 0.78. `CCn1nccc1C(=O)N1CC[C@H](Cn2c(C)cnc2C2CCC2)C1` was tested, and the “% Inhibition” value was -9% and the Z score was 1.15. With `CCn1cnc2ccc(-c3noc(-c4ccccc4Br)n3)cc21` the “% Inhibition” value was -22% and the Z score was 2.4. `Cc1cccc(OC[C@]2(CNS(=O)(=O)c3ccc(F)cc3)C[C@@H](O)[C@@H](O)C2)n1` was tested, and the “% Inhibition” value was 11% and the Z score was -1.26. `O=C1C2N=NN(Cc3nc(-c4ccc(Cl)cc4)no3)C2C(=O)N1c1cccc(F)c1` (stereo not given) was tested, and the “% Inhibition” value was -10% and the Z score was 1.17. `C[C@]1(CNC(=O)c2cc3n(n2)CCC3)CCOC1` was tested, and the “% Inhibition” value was -2% and the Z score was 0.33. With `O=C(Cn1nccc1[C@H]1CCCNC1)NCc1csc2c1CCCC2` the “% Inhibition” value was -7% and the Z score was 0.89. `CC(C)c1ccnc(N2C[C@@H]3CCC[C@H](C2)C(=O)N3)n1` was tested, and the “% Inhibition” value was -4% and the Z score was 0.61. With `OC[C@H](CNc1cncc(Br)c1)Cc1ccccn1` the “% Inhibition” value was -13% and the Z score was 1.29. In the case of `Cc1cc2ccccc2n1CC(=O)N1CCC[C@H]1c1nc2ccccc2s1`, the “% Inhibition” value is reported as 13% and the Z score is reported as -1.68. For `COc1ccc(CC(=O)N[C@H]2CCN(c3cc(C)cc(C)c3)C2=O)cc1Cl`, the “% Inhibition” value was -4% and the Z score was 0.62. In the case of `CCc1nc2c(s1)[C@@H](NCc1nnc3n1CCCC3)CCC2`, the “% Inhibition” value is reported as -3% and the Z score is reported as 0.37. For `CC[C@@H](C(=O)NC1(CO)CCCCC1)N(C)CC`, the “% Inhibition” value was -17% and the Z score was 2.12. For `CC(C)n1cc(CN2CCC3(CCC(=O)N(CCc4ccccc4)C3)CC2)cn1`, the “% Inhibition” value was 3% and the Z score was -0.52. In the case of `CN(CCN(C)C1CCCC1)Cc1cccc2cc[nH]c12`, the “% Inhibition” value is reported as -11% and the Z score is reported as 1.38. With `CN(Cc1ccc(C(=O)N(C)C)o1)CC1(CO)CCC1` the “% Inhibition” value was -11% and the Z score was 0.96. With `CCc1nc(-c2ccccc2)nc(N2CCN(C(=O)c3cccs3)CC2)c1Cc1ccc(C)cc1` the “% Inhibition” value was -21% and the Z score was 1.83. `Cc1ccc(CC(=O)N2CCC3C(CCC(=O)N3C3CC3)C2)cn1` (stereo not given) was tested, and the “% Inhibition” value was -12% and the Z score was 1.01. In the case of `Cn1cc(C(F)(F)F)nc1[C@H]1CCCN(C(=O)Cc2ccnn2C)C1`, the “% Inhibition” value is reported as -10% and the Z score is reported as 1.36. `Cc1cc(S(=O)(=O)N[C@H]2COC[C@@H]2N2CCOCC2)c2ncccc2c1` was tested, and the “% Inhibition” value was -4% and the Z score was 0.8. `NC(=O)[C@H]1CC=CC[C@@H]1NC(=O)c1cccc(N)n1` was tested, and the “% Inhibition” value was -5% and the Z score was 0.87. `Cc1nc(CCCC(=O)N2CCCC(C)C2CN)cs1` (stereo not given) was tested, and the “% Inhibition” value was -10% and the Z score was 1.38. In the case of `CC(C)C[C@H]1C[C@@H](C(=O)NCc2ccccc2)[C@]2(N1)C(=O)Nc1ccccc12`, the “% Inhibition” value is reported as 6% and the Z score is reported as -1.1. For `CC(=O)N1CCN(c2nnc(-c3ccccc3F)[nH]2)CC1`, the “% Inhibition” value was -3% and the Z score was 0.4. `COC[C@@H]1[C@H](C(=O)N2CCCc3ccccc32)CCC(=O)N1C` was tested, and the “% Inhibition” value was 0% and the Z score was 0.03. In the case of `CC(=O)c1cccc(NC(=O)Cn2nc3c(N4CCN(c5ccc(C)cc5)CC4)nccn3c2=O)c1`, the “% Inhibition” value is reported as -21% and the Z score is reported as 2.03. `Cc1ccc(C)n1CC(=O)NC[C@H]1CCCN2CCCCC12` (stereo not given in full) was tested, and the “% Inhibition” value was -6% and the Z score was 0.77. In the case of `O=S(=O)(NCc1nc2cccnc2n1C1CCCC1)c1ccc(Cl)cc1`, the “% Inhibition” value is reported as 0% and the Z score is reported as -0.04. In the case of `CCOC(=O)N1CCN(C(=O)c2cnc(N(C)C)nc2C)CC1`, the “% Inhibition” value is reported as -10% and the Z score is reported as 1.68. For `O=C(NC1CCCCCCC1)[C@@H]1CCCN1C(=O)c1ccco1`, the “% Inhibition” value was -6% and the Z score was 0.58. In the case of `Cc1ccc(-c2nc(CCN(C)C)no2)c(C)c1`, the “% Inhibition” value is reported as -11% and the Z score is reported as 1.45. In the case of `Cn1c(C(=O)NCC2CCCN3CCCC[C@H]23)cc2c(Cl)cccc21` (stereo not given in full), the “% Inhibition” value is reported as -1% and the Z score is reported as 0.11. For `N[C@H]1CCN(C(=O)c2cnn(-c3ncccc3Cl)c2C(F)(F)F)C1`, the “% Inhibition” value was -2% and the Z score was 0.24. `COc1cc(CNCc2ccco2)ccc1OCc1cccc(C)c1` was tested, and the “% Inhibition” value was 36% and the Z score was -4.78. With `CC(CNC(CC1CCCCC1)c1ncccn1)N1CCOCC1` (stereo not given) the “% Inhibition” value was -1% and the Z score was 0.18. With `O=C(Nc1ccc(Oc2ccccc2)c(Cl)c1)N1CCOC[C@@H](CO)C1` the “% Inhibition” value was -7% and the Z score was 1.02. With `CC(C)(CNC(=O)N1CCC(c2ccon2)CC1)c1c(F)cccc1Cl` the “% Inhibition” value was -4% and the Z score was 0.63. For `COC(=O)C[C@@H]1Oc2ccccc2N(CCOCc2ccccc2)C1=O`, the “% Inhibition” value was 15% and the Z score was -1.86. For `CC(C)N1C[C@@H](c2nc(-c3ccc(Br)o3)no2)CC1=O`, the “% Inhibition” value was -10% and the Z score was 1.3. `CC1CCCC(CCNS(=O)(=O)N2CCCC(C)C2)C1` (stereo not given) was tested, and the “% Inhibition” value was -2% and the Z score was 0.4. `Cc1onc(-c2cccs2)c1C(=O)N(C)CCN(C)c1ccc(S(N)(=O)=O)cc1` was tested, and the “% Inhibition” value was -3% and the Z score was 0.48. With `CCC(C)c1ccc(C(NC(=O)CN(C)S(C)(=O)=O)C(C)C)cc1` (stereo not given) the “% Inhibition” value was 12% and the Z score was -1.49. With `Cc1ccc([C@@H]2CC(C3CCCCC3)=NN2S(C)(=O)=O)cc1` the “% Inhibition” value was -6% and the Z score was 1.11. `COc1ccnc(CN2CCC[C@H]2C(=O)N2CCCCC2)c1` was tested, and the “% Inhibition” value was -9% and the Z score was 1.69. For `Cc1ccn(CCN2C[C@@](C)(c3ccccc3)CCC2=O)n1`, the “% Inhibition” value was -3% and the Z score was 0.36. With `Cc1nc2ccccn2c1CN1CCCC[C@H]1C(=O)N1CCOCC1` the “% Inhibition” value was -1% and the Z score was 0.09. With `O=C(c1cnccn1)N1CC(c2nc(-c3cccs3)no2)C1` the “% Inhibition” value was -11% and the Z score was 2.12. With `Cc1nccn1-c1ccc(F)cc1CNCc1cccc2cn[nH]c12` the “% Inhibition” value was -14% and the Z score was 1.65. With `COC[C@H](C)n1c(=O)ncn1-c1cc(C)ccc1C` the “% Inhibition” value was -3% and the Z score was 0.44. In the case of `Cc1nc(N2CCC[C@H](C(=O)NCc3ccccn3)C2)c2c(C)c(C)oc2n1`, the “% Inhibition” value is reported as 5% and the Z score is reported as -0.53. For `Cc1ccccc1CNC(=O)[C@H]1CCCN(c2ccnc(-c3cccc(F)c3)n2)C1`, the “% Inhibition” value was -12% and the Z score was 1.4. `CCCN(c1ncc(Cl)cn1)C1CC1` was tested, and the “% Inhibition” value was -16% and the Z score was 1.63. For `Cn1cccc1CN1CC[C@H]2CN(Cc3ccccc3)C[C@@]2(CO)C1`, the “% Inhibition” value was -7% and the Z score was 1.18. With `Fc1cc(Cl)cnc1OC[C@H]1CCCOC1` the “% Inhibition” value was 1% and the Z score was -0.15. With `C[C@@H](c1ccccn1)N(C)Cc1cccc(-c2ccccc2)c1` the “% Inhibition” value was -7% and the Z score was 1.01. For `c1ccc(CN2C3CCC2CN(CCC2OCCO2)CC3)cc1` (stereo not given), the “% Inhibition” value was -4% and the Z score was 0.49. In the case of `COc1ccc(NC(=O)c2c(F)c(F)c3c(c2F)N(Cc2cccnc2)CCS3(=O)=O)cc1`, the “% Inhibition” value is reported as -9% and the Z score is reported as 1.22. In the case of `Cc1c(COc2ccccc2)cccc1NCc1nnc(C2CC2)o1`, the “% Inhibition” value is reported as -3% and the Z score is reported as 0.53. For `Cc1cc(C(=O)N2CCC[C@@]3(CCC(=O)N(CCc4c[nH]cn4)C3)C2)[nH]n1`, the “% Inhibition” value was -10% and the Z score was 1.61. With `CCOc1ccc(C(=O)N2CCC[C@H](Oc3nc(C)cc(C)n3)C2)cc1OCC` the “% Inhibition” value was -1% and the Z score was 0.18. `CCCC(CCC)NCC[C@H]1CCCO1` was tested, and the “% Inhibition” value was -5% and the Z score was 0.52. For `CCCNC(=O)CCNC(=O)Nc1nn(C)cc1-c1ccccc1`, the “% Inhibition” value was -1% and the Z score was 0.11. `Cc1nn(C)cc1[C@H]1OCC[C@@H]1NC(=O)Nc1ccccc1C(C)(F)F` was tested, and the “% Inhibition” value was -3% and the Z score was 0.39. In the case of `CCN(CC)C(=O)[C@@H]1CCCN1C(=O)Nc1cn[nH]c1`, the “% Inhibition” value is reported as -14% and the Z score is reported as 2.77. `CCN1CCCN(C(=O)Nc2cc([C@H]3CCCOC3)nn2C)CC1=O` was tested, and the “% Inhibition” value was -1% and the Z score was 0.16. In the case of `Cc1ccc(-c2noc(CCCC(=O)N3CCC[C@H](c4nc(C5CCOCC5)no4)C3)n2)cc1`, the “% Inhibition” value is reported as -4% and the Z score is reported as 0.51. For `Cc1cnc(C)c(NCc2cccc(-c3nnc[nH]3)c2)n1`, the “% Inhibition” value was -6% and the Z score was 0.76. In the case of `CCCOc1ccccc1CCNC(=O)[C@@H](C)Cn1cccn1`, the “% Inhibition” value is reported as -8% and the Z score is reported as 1.23. With `O=C1OC(C(=O)NC2CCCc3ccccc32)Cc2ccccc21` (stereo not given) the “% Inhibition” value was 2% and the Z score was -0.25. With `CN(Cc1ccc(-n2cccn2)cc1)Cc1nc(Cc2cccc(F)c2)no1` the “% Inhibition” value was -7% and the Z score was 0.88. With `Cc1cccc2c1CC(C)(C)N(C(=O)c1cn(CC3CC3)nn1)C2` the “% Inhibition” value was -1% and the Z score was 0.24. With `Cc1cc(Br)cc(C(=O)NCC(C)(C)CO)c1` the “% Inhibition” value was 7% and the Z score was -1.26. With `FC(F)(F)c1cnc([C@H]2CCCN(Cc3csnn3)C2)[nH]1` the “% Inhibition” value was 0% and the Z score was 0.09. In the case of `CCn1cc(S(=O)(=O)NCCc2c[nH]c3ccc(F)cc23)cn1`, the “% Inhibition” value is reported as -10% and the Z score is reported as 1.48. `O=C(Nc1cccc(Cl)c1)c1ccnn1C1CCOCC1` was tested, and the “% Inhibition” value was 2% and the Z score was -0.43. With `O=C(c1c[nH]nc1-c1ccccn1)N1CC(c2ccccc2F)C1` the “% Inhibition” value was -24% and the Z score was 4.72. For `CN(CC1(C)COC1)C(=O)NCc1cccc2[nH]ccc12`, the “% Inhibition” value was -15% and the Z score was 1.83. For `CCOC(=O)[C@H]1CCCN(CC(=O)N2CCNC2=O)C1`, the “% Inhibition” value was -6% and the Z score was 0.65. With `C[C@@]1(C(=O)OCCn2cccn2)CCCN1C(=O)c1ccccc1` the “% Inhibition” value was -1% and the Z score was 0.11. For `O=C(c1cn[nH]c1)N1CCC(CC2CC2)(c2noc(-c3ccncc3)n2)CC1`, the “% Inhibition” value was -5% and the Z score was 0.65. With `CCn1ccnc1[C@H]1CCCN(C(=O)C2CCCCC2)C1` the “% Inhibition” value was -21% and the Z score was 2.14. For `CC[C@H](C)NC(=O)CCN(CCOC)c1nc(-c2ccco2)nc2ccccc12`, the “% Inhibition” value was -8% and the Z score was 1.1. With `CCCCn1nc(C2CCOCC2)nc1CCC(=O)N(C)C` the “% Inhibition” value was 14% and the Z score was -1.78. With `CCc1cnc(NC(=O)C[C@H]2CCS(=O)(=O)C2)s1` the “% Inhibition” value was -9% and the Z score was 1.88. `c1cc(CNC[C@H]2COC3(CCOCC3)O2)cs1` was tested, and the “% Inhibition” value was -8% and the Z score was 1.23.

Reference: ChEMBL document CHEMBL4888484, “Replenishing the malaria drug discovery pipeline: Screening and hit evaluation of the MMV Hit Generation Library 1 (HGL1) against asexual blood stage Plasmodium falciparum ,using a nano luciferase reporter read-out” (2022)
